# In PubChem BioAssay AID743279 (National Center for Advancing Translational Sciences (NCATS), 2014):
# About 17,000 (4.7%) of roughly 360,000 compounds were called active. This list was built around the results that the source calls inconclusive (neither active nor inactive); the mix of calls is not that of the screen. Cut-off read from the data, not from the text of the source: active = activity change below about -50%; inconclusive = mostly about -30% to -49%; inactive = weaker than that.
# Test: qHTS for Inhibitors of Inflammasome Signaling: IL-1-beta AlphaLISA Primary Screen
# Details: THP-1 LPS/ATP IL-1B secretion, 16 h; at 57.5 µM, active compounds read low
# Method in brief: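 THP-1 cells pretreated 1 hr with compounds (up to 57.5 uM final), then stimulated with LPS (250 ng/mL final) plus ATP (1.25 mM final); secreted IL-1B measured by AlphaLISA after 16 hr, decreased signal indicating inhibition.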
# % is set by controls: 0 for no effect and ±100 for the full control effect.
row,Compound,activity change
1,CCCCc1nc(SCC(=O)N2CCCC2)c2c(=O)n(C)c(=O)n(C)c2n1,inactive: 66.9%
2,Oc1ccc(C[C@H]2CNCCN2CCC23CC4CC(CC(C4)C2)C3)cc1,inconclusive: -35.1%
3,CCOC(=O)[C@H]1[C@H]2COc3ccc(Br)cc3[C@@H]2N2C(=O)c3ccc(Cl)cc3NC(=O)[C@@]12C,inconclusive: -30.7%
4,CCc1ccc2nc(/N=C(\N)NC(=O)c3ccccc3)nc(C)c2c1,inactive: -15.2%
5,CCN=C1S/C(=C\c2sccc2C)C(=O)N1CC,inactive: -10.5%
6,COc1ccc(-c2c(C)sc(NC(=O)c3ccnn3C)c2C#N)cc1,inactive: 9.68%
7,O=C(C[n+]1cccc(CNC(=O)c2ccc(OC(F)F)cc2)c1)Nc1cc(C(F)(F)F)ccc1Cl,inconclusive: -48.2%
8,Cc1ccc(NC(=O)c2ccc([N+](=O)[O-])o2)cc1C,active: -94.4%
9,Cc1cc(C(=O)COc2cccc(-n3cnnn3)c2)c(C)n1-c1ccccc1,inconclusive: -32.6%
10,COc1ccc(S(=O)(=O)N2CCOCC2)cc1NC(=O)CN(C)Cc1c(F)cccc1Cl,active: -65.7%
11,O=C(Cn1cc([N+](=O)[O-])ccc1=O)NCC(=O)Nc1ccc(F)c(F)c1F,inactive: -1.46%
12,Cc1ccc(/C=C2\SC(=S)N(CCCC(=O)Nc3cccnc3)C2=O)cc1,inconclusive: -30.1%
13,COC(=O)c1cccc(C(=O)N2CCC(CO)(Cc3ccccc3Cl)CC2)c1,inconclusive: -31.5%
14,CC(C)Cn1c2nc3ccccc3nc2c2c(=O)n(CCN3CCOCC3)cnc21,active: -55.6%
15,COc1ccc(C(CNC(=O)c2cc3ccccc3o2)N2CCCCC2)cc1 (stereo unspecified),inconclusive: -32.2%
16,COc1cc2c(cc1OC)-c1cc(NC3CC3)nc(=O)n1CC2,inconclusive: -33.4%
17,O=C(NCCOc1ccc(F)cc1)C1CCC(=O)N(Cc2ccc(Cl)cc2)C1 (stereo unspecified),inconclusive: -35%
18,CCN(CC)c1ccc(S(=O)(=O)N2CCCCC2)cc1NC(=O)C1CSC2(C)CCC(=O)N12 (stereo unspecified),active: -50.1%
19,COc1ccc(-c2nc(C(F)(F)F)c(OC)o2)cc1OC,inconclusive: -47.2%
20,C[C@H](CO)N1C[C@H](C)[C@@H](CN(C)C(=O)Nc2ccc(C(F)(F)F)cc2)Oc2c(NC(=O)Nc3ccccc3)cccc2C1=O,active: -58.2%
21,C[C@H]1CN([C@@H](C)CO)C(=O)CCCn2cc(nn2)CO[C@@H]1CN(C)C(=O)c1cc(-c2ccccc2)on1,inconclusive: -30.9%
22,CC(=O)c1c(C)[nH]c(C(=O)OC(C)C(=O)NC2CCCCC2)c1C (stereo unspecified),inactive: 8.81%
23,C/C(=N\NC(=O)c1cccc(Cl)c1)c1cccc(NC(=O)c2ccco2)c1,inconclusive: -31.3%
24,Cc1c(C#N)sc(C(N)=O)c1C,inactive: 3.6%
25,COc1ccc(Oc2nc(-c3cccnc3)nc3ccccc23)cc1,inconclusive: -37.2%
26,COc1ccc(OC)c(S(=O)(=O)NCC(c2ccc(F)cc2)N2CCN(C)CC2)c1 (stereo unspecified),inactive: -8.41%

row,Compound,activity change
1,COc1ccc(-c2ccc(SCC(=O)c3ccc(F)cc3)nn2)cc1OC,inconclusive: -46.8%
2,CCOC(=O)C1(Cc2ccccc2C)CCCN(C(=O)c2ccc(C(C)=O)s2)C1 (stereo unspecified),inactive: 11.6%
3,COc1ccc(OC)c(NC(=O)CC2C(=O)NCCN2C(=O)Nc2cccc(Cl)c2)c1 (stereo unspecified),active: -66%
4,O=C(OCC(=O)N1CCCCCC1)c1cnc(Cl)c(Cl)c1,inconclusive: -47.8%
5,COC(=O)C[C@H]1C[C@H]2c3cc(NC(=O)C4CCC4)ccc3O[C@H]2[C@H](CO)O1,inactive: -2.58%
6,CC(C)(C)S(=O)N1Cc2cc(C(=O)NCC(F)(F)F)nc(-c3cccc(-c4cccc(F)c4)c3)c2[C@H]1CCO (stereo partly specified),inconclusive: -37.1%
7,CC(C)c1nc(SCC(=O)N2c3ccccc3CC2C)c2ccccc2n1 (stereo unspecified),active: -99%
8,Cc1cccc(CSc2nc3c(c(-c4cccs4)c2C#N)CN(C)CC3)c1,inconclusive: -46.9%
9,O=C(NNc1ncnc2c1cnn2-c1ccccc1)c1cccs1,active: -60.2%
10,C[C@H](CO)N1C[C@H](C)[C@H](CN(C)C(=O)Nc2ccc(C(F)(F)F)cc2)Oc2c(NC(=O)c3ccncc3)cccc2C1=O,inconclusive: -40.9%
11,CC(=O)c1ccc(NC(=O)/C=C/c2ccc(C)cc2)cc1,inconclusive: -33.1%
12,O=C(Cc1ccc([N+](=O)[O-])cc1)OCc1ccc([N+](=O)[O-])cc1,inactive: -11%
13,Cn1cnc([N+](=O)[O-])c1S(=O)(=O)Oc1cccc2ccccc12,active: -102%
14,Cc1ccc(NC(=O)Nc2ccc(F)cc2)cc1Cl,inconclusive: -32.4%
15,Cc1cccc(OCc2nnc(SCC(=O)Nc3cc(C)on3)n2C)c1,inactive: 0.0525%
16,CCCCn1nnnc1C(c1cc2ccccc2o1)N(CCN(C)C)Cc1ccccc1 (stereo unspecified),inconclusive: -42.3%
17,CC(=O)N1c2c(cc(Br)cc2S(=O)(=O)NCC2COc3ccccc3O2)CC1C (stereo unspecified),inconclusive: -41.2%
18,O=C(NCc1nnc(SCc2ccccc2)n1-c1ccc(F)cc1)C12CC3CC(CC(C3)C1)C2,inconclusive: -40.3%
19,O=C(Nc1ccc(C(=O)N2CCCC2)cc1)c1cc(F)c(F)cc1Cl,inconclusive: -36%
20,COc1ccc(N2C(=O)C(CC(=O)O)S/C2=N\N=C\c2cccs2)cc1 (stereo unspecified),inactive: -2.25%
21,CC(C)(C)c1ccc(C(=O)CC(Sc2ccc(Cl)cc2)C(=O)O)cc1 (stereo unspecified),active: -96.5%
22,Cc1c2cnn(CC(=O)NCCCN3CCCCC3C)c(=O)c2c(C)n1Cc1ccccc1 (stereo unspecified),inconclusive: -34.1%
23,COc1ccc(NC(=S)/N=C(\N)Nc2nc(C)c3ccccc3n2)cc1,inactive: -6.65%
24,CC[C@H]1OC(=O)[C@H](C)[C@@H](O[C@H]2C[C@@](C)(OC)[C@@H](O)[C@H](C)O2)[C@H](C)[C@@H](O[C@@H]2O[C@H](C)C[C@H](N(C)C)[C@H]2O)[C@](C)(O)C[C@@H](C)CN(C)[C@H](C)[C@@H](O)[C@]1(C)O,inconclusive: -42%
25,CCn1c(SC)nnc1-c1sc2cc(Cl)ccc2c1Cl,inconclusive: -32.8%
